Data as given in PubChem BioAssay AID686979 (National Center for Advancing Translational Sciences (NCATS), 2013).
The whole screen tested about 420,000 compounds, of which about 50,000 (12%) were called active. The shares of active, inactive and inconclusive entries below differ from those in the screen. Calls come from the whole dose curve; as a rule, active = well fitted inhibition curve with a large enough effect; inconclusive = small, poorly fitted or top-dose-only effect; inactive = flat fitted curve, though single readings scatter. Potencies of inconclusive entries are left out as doubtful fits.

test: qHTS for Inhibitors of human tyrosyl-DNA phosphodiesterase 1 (TDP1): qHTS in cells in presence of CPT; conditions: chicken DT40 Tdp1-/-;hTDP1 cells + 20 nM CPT, ATP luminescence, 48 h; activity change, negative = growth inhibition: at 46.2 µM (top of the series); note: nearly all actives have a fitted effect of over 55% in size
Outline: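 Cell growth measured by CellTiter-Glo luminescence after a minimum 48 h, 37 C compound exposure with 20 nM CPT in Tdp1-knockout DT40 cells stably expressing hTDP1, seeded 400/well; qHTS titration format.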
% is set by controls: 0 for no effect and ±100 for the full control effect; potency is the fitted concentration of half-maximal effect; tags give direction and shape of the fitted curve.

Compound | Potency | activity change, negative = growth inhibition
CC1(c2ccccc2)CC(C)(C)N(C(=O)c2cccc(Cl)c2)c2ccccc21 (stereo not drawn) | inconclusive [inhibitor, single point] | –
Cc1onc(-c2ccccc2)c1C(=O)Nc1ccc(C(=O)N2CCCCC2)cc1 | inconclusive [inhibitor, partial curve] | –
O=C(Nc1ccc(OCCO)cc1)c1csc([C@@H]2O[C@H](CO)[C@H](O)[C@H](O)[C@H]2O)n1 | – | inactive: 14.5%
COc1ccc(-c2cn(-c3ccccc3)nc2C(=O)O)cc1OC | – | inactive: 1.23%
Cc1ccccc1-c1nc2ccccc2c(=O)n1/N=C/c1ccc([N+](=O)[O-])cc1 | – | inconclusive: -27.7% [inhibitor]
COC(=O)c1cccc(NC(=O)COc2cccc([N+](=O)[O-])c2)c1 | – | inactive: -13.1%
O=S(=O)(Cc1ccccc1)N1CCN(Cc2ccc(Br)cc2)CC1 | – | inactive: -22.4%
NC(=O)c1nsc(C(=O)N(Cc2cccnc2)C(C(=O)NC2CCCCC2)c2ccc(F)cc2)c1N (stereo not drawn) | inconclusive [inhibitor, partial curve] | –
COc1ccccc1NC(=O)c1ccc(CN2C(=O)C(C)=C(c3ccc(C)c(C)c3)S2(=O)=O)cc1 | inconclusive [inhibitor, single point] | –
CC12CC3CC(C)(C1)CC(C(=O)NC(=S)N1CCOCC1)(C3)C2 | – | inactive: -5.49%
O=C(CSc1ccccn1)Nc1ccc2c(c1)CCC2 | – | inactive: -10.9%
CCOc1ccccc1NC(=S)N1CCCCCC1 | inconclusive [inhibitor, single point] | –
CC(=O)c1c(C)[nH]c(C(=O)Nc2ccc(S(=O)(=O)N(C)C)cc2)c1C | – | inconclusive: -33.6% [inhibitor]
C#CCn1c(=NC(=O)c2ccc(Cl)s2)sc2cccc(OC)c21 | inconclusive [inhibitor, single point] | –
CNC(=O)C(=O)N/N=C/c1cccnc1 | – | inactive: -3.49%
CCC(C(=O)NC1CCCC1)N(Cc1ccco1)C(=O)Cn1nnc(-c2ccc(C)cc2)n1 (stereo not drawn) | inconclusive [inhibitor, single point] | –
Cc1nc(-c2ccccc2)cc(-c2ccccc2)n1 | – | inactive: 1.71%
CCN1CCN(C(=O)CCn2c(=O)c3cccn3c3cccnc32)CC1 | – | inactive: 17.7%
CCOc1cccc(/C=N/Nc2nc(N3CCCC3)nc(N3CCCC3)n2)c1O | active: 16.4 µM | –
CCOC(=O)C1=C[C@@H](c2ccccc2)N(S(=O)(=O)c2ccc(C)cc2)[C@H]1c1cccc(Cl)c1 | inconclusive [inhibitor, single point] | –
CN1CCN(C(=O)Nc2ccc3c(c2)N(C)C(=O)c2ccccc2S3)CC1 | – | inactive: -2.23%
Cc1c(C#N)c2ncnc(-c3ccccc3)c2n1-c1ccccc1 | inconclusive [inhibitor, single point] | –
COc1ccc(C(C)(O)c2nc(-c3ccc(OC)c(OC)c3)cs2)cc1 (stereo not drawn) | active: 23.1 µM | –
CCOc1nc2cccc(C(=O)OC(C)OC(=O)OC3CCCCC3)c2n1Cc1ccc(-c2ccccc2-c2nn[nH]n2)cc1 (stereo not drawn) | inconclusive [inhibitor, single point] | –
Cc1cccc(N(CC(=O)Nc2ccccc2F)S(C)(=O)=O)c1 | – | inactive: -18.9%

Compound | Potency | activity change, negative = growth inhibition
O=C1CC(N2CCCCC2)C(=O)N1c1ccccc1 (stereo not drawn) | inconclusive [inhibitor, single point] | –
COc1ccc(C2=NNC(=Nc3cc(S(=O)(=O)N(C)C)ccc3C)SC2)c(OC)c1 | inconclusive [inhibitor, single point] | –
CCCNC(=O)CN1CCN(c2cc3ccccc3c(Cl)n2)CC1 | inconclusive [inhibitor, single point] | –
CCn1c(/C=C/Nc2ccccc2)[n+](CC)c2cc(Cl)c(Cl)cc21 | active: 2.59 µM | –
CC1=NN(c2nc(C)cc(C)n2)C(=O)C1CCC(C)C (stereo not drawn) | inconclusive [inhibitor, single point] | –
O=C(Cc1ccc(F)cc1)N1CCC(CC2CC(c3cccc(Br)c3)=NO2)(C(=O)NCC2CCCCC2)CC1 (stereo not drawn) | inconclusive [inhibitor, single point] | –
CC(NC(=O)C(=O)N/N=C/c1ccccc1)c1ccccc1 (stereo not drawn) | – | inactive: -16.7%
Cc1ccc(NS(=O)(=O)c2ccc3[nH]c4c(c3c2)CCCC4)cc1N(C)C | inconclusive [inhibitor, single point] | –
COc1ccc(OCCC(=O)OCC(=O)NCc2ccc(F)cc2)cc1 | – | inactive: -2.38%
O=C(NCc1ccccc1CN1CCCC1)c1cccc(S(=O)(=O)Nc2ccc(F)cc2)c1 | inconclusive [inhibitor, single point] | –
Cc1ccc(S(=O)(=O)n2c(N)nc3cc(C)c(C)cc32)cc1 | inconclusive [inhibitor, single point] | –
Cc1ccc(C(=O)NCC(c2ccco2)N2CCc3ccccc32)cc1 (stereo not drawn) | active: 10.3 µM | –
Cc1nc2ccn(Cc3cccs3)c(=O)c2cc1C(=O)N1CCN(c2ccccc2F)CC1 | inconclusive [inhibitor, single point] | –
COc1ccc(Nc2nc3ccccc3s2)cc1 | – | inactive: -7.76%
COc1cc(/C=N/n2cnnc2)ccc1OC(=O)c1ccco1 | inconclusive [inhibitor, partial curve] | –
O=C(Nc1ccc(Cl)cc1F)C1CCCN(C2=NS(=O)(=O)c3ccccc32)C1 (stereo not drawn) | inconclusive [inhibitor, partial curve] | –
COC1=CC(=O)OC(c2ccco2)C1 (stereo not drawn) | – | inactive: -2.94%
O=C(Nc1cnn(Cc2ccc(Cl)cc2)c1)c1ccc([N+](=O)[O-])cc1 | inconclusive [inhibitor, single point] | –
Cc1ccccc1Cn1nc(C)c(NC(=O)C2(C)CC2(Cl)Cl)c1C (stereo not drawn) | – | inactive: -13.5%
Cn1cccc1CN1CCC[C@]2(N[C@H](c3ccccc3)[C@@H]3C(=O)N(Cc4ccccc4)C(=O)[C@@H]32)C1=O | inconclusive [inhibitor, partial curve] | –
COc1cc(C(=O)NNC(=O)CNC(=O)C2CCCCC2)ccc1OC(C)C | – | inactive: -26.6%
COc1ccccc1/C=C1\N=C(C(C)(C)C)OC1=O | inconclusive [inhibitor, single point] | –
Cc1cccc(N=C2NC(=O)/C(=C\c3cccs3)S2)c1 | active: 13 µM | –
O=C(CCC(=O)OCC(=O)c1cccc([N+](=O)[O-])c1)NC1CCCCC1 | inconclusive [inhibitor, single point] | –
COc1cccc(NC(=O)c2ccc3c(c2)CCN3S(C)(=O)=O)c1 | inconclusive [inhibitor, partial curve] | –

Compound | Potency | activity change, negative = growth inhibition
CCCS(=O)(=O)NC(=O)C1(C)CCCN(C(=O)c2cc(C)n(C(C)(C)C)n2)C1 (stereo not drawn) | – | inactive: -9.09%
Cc1cc(C)nc(NS(=O)(=O)c2ccc(NC(=O)CCCN3C(=O)c4ccccc4C3=O)cc2)n1 | – | inactive: -18.2%
O=C(NC(C(=O)N/N=C/c1c2ccccc2cc2ccccc12)c1n[nH]c(=O)c2ccccc12)c1ccccc1 (stereo not drawn) | active: 8.2 µM | –
O=C(c1ccccc1NS(=O)(=O)c1cccc2cccnc12)N1CCOCC1 | – | inactive: 9.93%
COC(=O)/C=C1\OCc2ccc(C)cc21 | – | inactive: 14%
Cc1nc2ccccc2c2oc(C(=O)N3CCCC(C)C3)cc12 (stereo not drawn) | inconclusive [inhibitor, single point] | –
CC(C)Nc1nc(-c2ccccc2)nc(-n2ccnc2)n1 | – | inactive: -2.95%
CC1=CC(=C(C#N)c2nc3ccccc3s2)C=C(C)N1c1ccc(F)cc1F | inconclusive [inhibitor, partial curve] | –
CC1CCN(S(=O)(=O)c2ccc3c(c2)N(CC(=O)NCCc2ccccc2)C(=O)CO3)CC1 | inconclusive [inhibitor, single point] | –
Cc1cccc(C2=NC(C(F)(F)F)(C(F)(F)F)c3c(n(-c4ccc(F)cc4)c(=O)[nH]c3=O)N2)c1 | active: 20.6 µM | –
O=C(Cc1cccc2ccccc12)Nc1ccc(-c2cc3ccccc3oc2=O)cc1 | inconclusive [inhibitor, partial curve, poor fit] | –
NC(Cc1ccc(Cl)cc1)c1csc(Nc2ccc(C(=O)NCCCO)cn2)n1 (stereo not drawn) | inconclusive [inhibitor, single point] | –
O=C(C1CCCN(Cc2ccccc2[N+](=O)[O-])C1)N1CCCCC1 (stereo not drawn) | – | inactive: -29.4%
Cc1ccnc(NC(=O)CSc2ccccn2)c1 | – | inactive: 5.96%
COc1ccc(C2=CC(c3ccccc3Cl)n3nc(-c4ccc(Cl)cc4)nc3N2)cc1 (stereo not drawn) | – | inactive: -25.4%
O=C(COc1ccc(S(=O)(=O)NCCc2ccccc2)cc1)N1CCCC1 | inconclusive [inhibitor, single point] | –
Cc1cc(C)c(C(=O)N2CCCC(N3CCN(c4cccc(C(F)(F)F)c4)CC3)C2)o1 (stereo not drawn) | active: 20.6 µM | –
NC(=O)c1c(NC(=O)CN2C(=O)NC(Cc3ccccc3)C2=O)sc2c1CCC2 (stereo not drawn) | inconclusive [inhibitor, single point] | –
CN1CCC(N(C)C(=O)CCc2nc3ccccc3c(=O)[nH]2)CC1 | inconclusive [inhibitor, partial curve, poor fit] | –
COc1ccc(OCC(O)CNS(=O)(=O)c2cccc(Cl)c2)cc1 (stereo not drawn) | inconclusive [inhibitor, single point] | –
COc1ccccc1CNC(=O)CCS(=O)(=O)c1ccc2c(c1)CCN2C(C)=O | inactive | –
S=c1[nH]c(=S)c2n[nH]nc2[nH]1 | inconclusive [inhibitor, single point] | –
COC(=O)c1scc(-c2ccc(C)cc2)c1S(=O)(=O)N1CCN(c2ccc(C(C)=O)cc2)CC1 | active: 23.1 µM | –
